Assay results from patent US20220339099A1 (published 2022).

Key:
[1] = target: T1, IL-1R1 in fresh rat whole blood (rat, UniProt Q02955 20-576); assay: cell-based or functional assay
T1 sequence (looked up): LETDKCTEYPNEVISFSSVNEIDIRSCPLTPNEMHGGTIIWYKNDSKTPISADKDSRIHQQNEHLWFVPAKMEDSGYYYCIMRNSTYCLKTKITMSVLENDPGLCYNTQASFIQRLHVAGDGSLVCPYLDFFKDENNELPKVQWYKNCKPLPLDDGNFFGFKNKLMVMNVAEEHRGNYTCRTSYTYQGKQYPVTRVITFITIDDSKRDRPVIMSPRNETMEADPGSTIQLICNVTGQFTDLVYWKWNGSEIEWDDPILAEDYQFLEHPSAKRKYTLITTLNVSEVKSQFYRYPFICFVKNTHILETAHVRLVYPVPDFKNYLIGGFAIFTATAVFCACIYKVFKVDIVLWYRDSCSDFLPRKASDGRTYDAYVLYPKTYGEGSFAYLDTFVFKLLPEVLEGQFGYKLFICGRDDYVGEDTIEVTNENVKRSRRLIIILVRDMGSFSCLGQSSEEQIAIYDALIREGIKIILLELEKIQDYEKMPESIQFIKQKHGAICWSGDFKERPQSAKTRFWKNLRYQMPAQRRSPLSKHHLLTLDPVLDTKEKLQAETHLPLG

[2] = target: T2, human IL-1 type 1 receptor (IL-1R1) (human, UniProt P14778 18-336, limits assumed); assay: surface plasmon resonance
T2 construct: SPR reagent; also called IL-1RI; interleukin-1 type I receptor
T2 sequence (looked up): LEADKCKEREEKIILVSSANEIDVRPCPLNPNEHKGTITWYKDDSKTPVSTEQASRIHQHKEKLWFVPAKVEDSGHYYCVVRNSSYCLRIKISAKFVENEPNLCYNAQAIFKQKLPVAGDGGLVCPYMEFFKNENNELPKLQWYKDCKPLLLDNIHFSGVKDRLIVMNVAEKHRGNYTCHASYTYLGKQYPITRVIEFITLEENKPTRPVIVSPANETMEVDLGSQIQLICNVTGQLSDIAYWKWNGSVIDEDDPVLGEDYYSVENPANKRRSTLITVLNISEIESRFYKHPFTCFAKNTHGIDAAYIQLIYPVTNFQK

B1: ALTA-2530 recombinant human interleukin 1 receptor antagonist (rhIL-1Ra; anakinra) (ligand)
chain: not shown
notes: mature; also called OSP-101
[1]
  IC50, whole blood IL-6 release assay in rats: 0.399 µg/mL
[2]
  Kd: 7.43 pM
  koff: 1.8e-05 s⁻¹
  kon: 2.46e+06 M⁻¹ s⁻¹
